The text below walks through data of PMC4336329 (PLoS ONE, 2015).

Screen size: about 310,000 compounds; about 14,000 (4.5%) showed an effect of 50% or more. The effect is printed as a negative number. The list shows a part of the results.
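Note: peak tail current of the secondary pulse compared with the same well before compound.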

Sequence of human ether-à-go-go-related gene (hERG) potassium channel (Q12809 whole entry, looked up): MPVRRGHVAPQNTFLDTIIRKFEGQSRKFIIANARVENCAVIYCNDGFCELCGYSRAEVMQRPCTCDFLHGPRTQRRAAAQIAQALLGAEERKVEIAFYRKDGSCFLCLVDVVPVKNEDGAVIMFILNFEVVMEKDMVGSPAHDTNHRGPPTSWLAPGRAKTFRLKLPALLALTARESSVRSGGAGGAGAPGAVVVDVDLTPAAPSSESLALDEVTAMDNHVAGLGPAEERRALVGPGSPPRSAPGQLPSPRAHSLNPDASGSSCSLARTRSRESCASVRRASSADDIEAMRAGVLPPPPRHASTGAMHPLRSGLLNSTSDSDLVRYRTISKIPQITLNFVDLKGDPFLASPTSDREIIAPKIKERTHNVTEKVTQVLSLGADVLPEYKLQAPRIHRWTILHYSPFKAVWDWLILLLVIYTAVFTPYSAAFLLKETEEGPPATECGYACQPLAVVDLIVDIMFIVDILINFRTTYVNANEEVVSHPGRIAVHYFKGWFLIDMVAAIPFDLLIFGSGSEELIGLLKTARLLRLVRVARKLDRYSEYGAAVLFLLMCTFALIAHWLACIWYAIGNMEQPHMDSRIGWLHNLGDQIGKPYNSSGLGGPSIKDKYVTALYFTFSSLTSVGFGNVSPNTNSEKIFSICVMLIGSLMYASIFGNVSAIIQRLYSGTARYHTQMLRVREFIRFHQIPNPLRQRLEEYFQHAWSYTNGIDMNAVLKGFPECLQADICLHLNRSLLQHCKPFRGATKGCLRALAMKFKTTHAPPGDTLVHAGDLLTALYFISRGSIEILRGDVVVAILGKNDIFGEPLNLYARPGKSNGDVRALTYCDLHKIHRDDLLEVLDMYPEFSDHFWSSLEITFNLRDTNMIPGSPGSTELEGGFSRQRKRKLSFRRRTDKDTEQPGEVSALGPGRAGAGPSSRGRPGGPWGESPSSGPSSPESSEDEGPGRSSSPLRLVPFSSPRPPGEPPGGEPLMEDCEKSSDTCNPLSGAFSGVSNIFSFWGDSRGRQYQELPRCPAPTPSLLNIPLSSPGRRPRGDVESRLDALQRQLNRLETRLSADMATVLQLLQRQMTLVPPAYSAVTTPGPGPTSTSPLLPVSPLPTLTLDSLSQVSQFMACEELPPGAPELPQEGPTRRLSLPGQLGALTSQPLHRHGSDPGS

The test has as its target human ether-à-go-go-related gene (hERG) potassium channel (human, UniProt Q12809). Nature of the test: primary screen, population patch clamp on CHO cells stably expressing hERG.
As for `COc1ccc(C)cc1NS(=O)(=O)c1cn(C)c(=O)n(C)c1=O`, the “hERG current change (%, negative = inhibition) at 10uM” value was -2.16%.

As to `C=CCc1c(C)c(C#N)c2nc3ccccc3n2c1N1CCCCC1`, the “hERG current change (%, negative = inhibition) at 10uM” value came to 10.2%.

For the compound `CCCC(=O)Nc1ccc(C(=O)NN=C(C2CC2)C2CC2)cc1`, the “hERG current change (%, negative = inhibition) at 10uM” value came to 2.1%.

In the case of `FC(F)(F)c1cccc(NC(=S)Nc2cccc(NC(=S)Nc3cccc(C(F)(F)F)c3)n2)c1`, the “hERG current change (%, negative = inhibition) at 10uM” value is listed as -4.29%.

Take `COc1ccc(CCNC(=O)c2cccc(S(=O)(=O)N3CCc4ccccc4C3)c2)cc1`: the “hERG current change (%, negative = inhibition) at 10uM” value is reported as -24.6%.

In the case of `CS(=O)(=O)N1CCC(C(=O)N2CCc3ccccc3C2)CC1`, the “hERG current change (%, negative = inhibition) at 10uM” value is -3.19%.

As for `COc1cc(Oc2ccccc2)nc(N)n1`, the “hERG current change (%, negative = inhibition) at 10uM” value is on record as -9.37%.

In the case of `Cc1ccc(S(=O)(=O)Cn2nnnc2C(c2ccccn2)N2CCN(c3ccccc3)CC2)cc1` (stereo not shown), the “hERG current change (%, negative = inhibition) at 10uM” value is -2.76%.

Consider `CC1CCCC(NC(=O)C2CCN(S(=O)(=O)N3CCCCC3)CC2)C1C` (stereo not shown), for which the “hERG current change (%, negative = inhibition) at 10uM” value stood at 7.85%.

`O=C(O)c1cc(-c2c[nH]c3ccccc23)nc2cc3ccccc3cc12`: the “hERG current change (%, negative = inhibition) at 10uM” value is on record as 3%.

Take `COc1ccc(Oc2nc(C)cc(C)c2C#N)cc1`: the “hERG current change (%, negative = inhibition) at 10uM” value was found to be 0.0919%.

As for `CSc1nnc([C@H](C)NC(=O)OC(C)(C)C)o1`, the “hERG current change (%, negative = inhibition) at 10uM” value is recorded as -1.25%.

`O=C(CN1CCN(S(=O)(=O)c2ccccc2)CC1)Nc1ccccc1Cl`: the “hERG current change (%, negative = inhibition) at 10uM” value is listed as -6.93%.

As for `CCOC(=O)c1c(NC(=O)CSc2nnc(C)s2)sc2c1CCC(C)C2` (stereo not shown), the “hERG current change (%, negative = inhibition) at 10uM” value was found to be 21.5%.

On to `Cc1ccccc1/C=N/n1c(-c2ccccn2)n[nH]c1=S`, for which the “hERG current change (%, negative = inhibition) at 10uM” value was determined as 14.7%.

As to `CCOC(=O)C1C(=O)C=C(c2ccc(OC)cc2)CC1c1ccco1` (stereo not shown), the “hERG current change (%, negative = inhibition) at 10uM” value is on record as -19.3%.

With `COC(=O)c1ccccc1NS(=O)(=O)c1ccc(NC(C)=O)cc1`, the “hERG current change (%, negative = inhibition) at 10uM” value was determined as 1.46%.

As to `Nc1nonc1-n1nnc(C(=O)N/N=C/c2ccccc2Cl)c1CN1CCOCC1`, the “hERG current change (%, negative = inhibition) at 10uM” value was -3.45%.

With `COc1ccc(CC(NC(=O)c2ccccc2)C(=O)NCC(=O)O)cc1` (stereo not shown), the “hERG current change (%, negative = inhibition) at 10uM” value worked out at 9.31%.

Take `CC(C)CCN(N=O)[C@@H](Cc1ccccc1)CN(N=O)[C@@H](Cc1ccccc1)CN(C)N=O.[Na+]`: the “hERG current change (%, negative = inhibition) at 10uM” value is -6.51%.

Regarding `COC(=O)c1sc(-c2ccc(Cl)cc2)cc1N`, the “hERG current change (%, negative = inhibition) at 10uM” value is on record as -37.1%.

With `C=CCn1c(CCNC(=O)c2ccccc2F)nnc1SCC(=O)Nc1nc2ccccc2s1`, the “hERG current change (%, negative = inhibition) at 10uM” value is -24.3%.

`O=C(c1ccc(-c2ccccc2)c(F)c1)C1CCCN(CCO)C1` (stereo not shown): the “hERG current change (%, negative = inhibition) at 10uM” value is -44.8%.

With `C[C@H](NC(=O)c1ccccc1Cl)C(=O)OCc1cn2cc(Cl)ccc2n1`, the “hERG current change (%, negative = inhibition) at 10uM” value is listed as -7.08%.

Regarding `CC(NS(=O)(=O)c1ccccc1Cl)C1CC2CCC1C2` (stereo not shown), the “hERG current change (%, negative = inhibition) at 10uM” value is given as 6.73%.

`COc1ccc(C(=O)n2nc(C)cc2C)cc1Br`: the “hERG current change (%, negative = inhibition) at 10uM” value is listed as -0.154%.

As to `O=C(c1cc2c(cc1Br)OCCCO2)N1CCCCC1`, the “hERG current change (%, negative = inhibition) at 10uM” value is 11%.

As for `O=C(O)CCCCCn1c(SCc2cc(=O)n3cc(Cl)ccc3n2)nc2ccsc2c1=O`, the “hERG current change (%, negative = inhibition) at 10uM” value is reported as -11.7%.

`Cc1ccc(S(=O)(=O)NC(CC(C)C)C(=O)N2CC(C)OC(C)C2)cc1` (stereo not shown): the “hERG current change (%, negative = inhibition) at 10uM” value is reported as -24.4%.

Regarding `O=C(CC(c1ccccc1)C1CCCCC1=O)c1ccco1` (stereo not shown), the “hERG current change (%, negative = inhibition) at 10uM” value is -1.73%.

For the compound `Cc1ccc(NC(=O)CCS(=O)(=O)c2ccc(Br)s2)cc1`, the “hERG current change (%, negative = inhibition) at 10uM” value was -15.4%.

Consider `CCOc1ccc(N2C(=O)CC(Sc3ncccn3)C2=O)cc1` (stereo not shown), for which the “hERG current change (%, negative = inhibition) at 10uM” value was 8.27%.

On to `Cc1cc(NC(=O)COc2ccccc2C)no1`, for which the “hERG current change (%, negative = inhibition) at 10uM” value came to 9.34%.

With `O=C1CC(c2ccccc2)CC(O)=C1C=Nc1ccccc1` (stereo not shown), the “hERG current change (%, negative = inhibition) at 10uM” value is 5.66%.

Consider `Cc1ccc(S(C)(=O)=O)cc1C(=O)Nc1ccc(S(=O)(=O)Nc2nccs2)cc1`, for which the “hERG current change (%, negative = inhibition) at 10uM” value was 3.07%.

Turning to `CCn1cc(C(=O)N[C@@H](C)C(=O)NCCCO)c(=O)c2cc3c(cc21)OCO3`, the “hERG current change (%, negative = inhibition) at 10uM” value is reported as 23.8%.

On to `CC1CCCCN1C(=O)C1CCCCN1S(=O)(=O)c1cccc([N+](=O)[O-])c1` (stereo not shown), for which the “hERG current change (%, negative = inhibition) at 10uM” value is recorded as -7.99%.

With `CC1CCC(NC(=O)CCS(=O)(=O)c2ccc3c(c2)CCN3C(=O)C2CC2)CC1` (stereo not shown), the “hERG current change (%, negative = inhibition) at 10uM” value amounted to 13%.

For the compound `COCCN(C(=O)COC(=O)CCc1c[nH]c2ccccc12)c1c(N)n(Cc2ccccc2)c(=O)[nH]c1=O`, the “hERG current change (%, negative = inhibition) at 10uM” value is reported as -17.9%.

As to `O=C(Cc1ccc(Cl)cc1)Nc1ccccc1C(=O)Nc1ccc(C(=O)O)cc1`, the “hERG current change (%, negative = inhibition) at 10uM” value was 17.9%.

`C=CCOc1ccc2ccccc2c1CNn1c(C)n[nH]c1=S`: the “hERG current change (%, negative = inhibition) at 10uM” value was 14.4%.

`NCCCCCc1cn(CC(=O)NCCCCCCCCCCC(=O)N2CCNCC2)nn1`: the “hERG current change (%, negative = inhibition) at 10uM” value is given as -30.6%.

For the compound `CC(=O)N1CCN(C(=O)c2cc3ccccc3o2)CC1`, the “hERG current change (%, negative = inhibition) at 10uM” value turned out to be 20.1%.

Regarding `Cc1ccc(S(=O)(=O)CCC(=O)NCc2ccco2)cc1`, the “hERG current change (%, negative = inhibition) at 10uM” value is reported as -4.83%.

Take `O=C(Nc1ccc(Cl)cc1)N1N=CCC1c1ccccc1` (stereo not shown): the “hERG current change (%, negative = inhibition) at 10uM” value is -1.59%.

As for `Cc1ccc(/C=N/NC(=O)c2ccc(-n3cccc3)cc2)o1`, the “hERG current change (%, negative = inhibition) at 10uM” value is 3.69%.

For `O=C(NCc1cnn(-c2ccccc2)c1)C1CCC(=O)N(C2CC2)C1` (stereo not shown), the “hERG current change (%, negative = inhibition) at 10uM” value turned out to be 15.6%.

For the compound `Cc1cnc(C(=O)OCC(=O)NCc2ccccc2)cn1`, the “hERG current change (%, negative = inhibition) at 10uM” value turned out to be 23.6%.

As for `COc1cc(C=O)c(Br)cc1OCC(=O)NCc1ccccc1`, the “hERG current change (%, negative = inhibition) at 10uM” value came out at 10.5%.

In the case of `CCC1CC(C(=O)Nc2ccccc2)C(=O)O1` (stereo not shown), the “hERG current change (%, negative = inhibition) at 10uM” value is given as 16.8%.

Regarding `O=c1[nH]cnc2c1oc1ccccc12`, the “hERG current change (%, negative = inhibition) at 10uM” value came out at 10%.

Consider `CC(C)C(OC(=O)c1nsc(Cl)c1Cl)C(=O)NCc1ccccc1` (stereo not shown), for which the “hERG current change (%, negative = inhibition) at 10uM” value is -1.02%.

With `Cl.Fc1ccccc1CNC1CN2CCC1CC2` (stereo not shown), the “hERG current change (%, negative = inhibition) at 10uM” value turned out to be 22%.

On to `C=CCn1c(N)cc(=O)nc1SCC(=O)N(c1ccccc1)c1ccccc1`, for which the “hERG current change (%, negative = inhibition) at 10uM” value was 15.3%.

As to `COc1ccc2c3c([nH]c2c1)C1CC2C(CC(O)C(OC)C2CO)CN1CC3` (stereo not shown), the “hERG current change (%, negative = inhibition) at 10uM” value was -48.7%.

In the case of `COc1ccccc1C1C2=C(COC2=O)Nc2cc3c(cc21)OCO3` (stereo not shown), the “hERG current change (%, negative = inhibition) at 10uM” value turned out to be 1.55%.

`OC(c1ccccc1)c1ccncc1` (stereo not shown): the “hERG current change (%, negative = inhibition) at 10uM” value turned out to be 6.25%.

Turning to `COc1cc(C2CC(=O)N3CN(Cc4ccccc4)CSC3=C2C#N)ccc1OCc1ccccc1` (stereo not shown), the “hERG current change (%, negative = inhibition) at 10uM” value amounted to 12.7%.
